# Measured values from the supplement of paper PMC12217912.
# Some of the results follow. Sequences were assembled here from the parent chain. Inactive controls read about 0.05.
# B1: TEV protease; numbered along this chain (parent)
# chain: MGESLFKGPRDYNPISSSICHLTNESDGHTTSLYGIGFGPFIITNKHLFRRNNGTLVVQSLHGVFKVKDTTTLQQHLVDGRDMIIIRMPKDFPPFPQKLKFREPQREERICLVTTNFQTKSMSSMVSDTSCTFPSGDGIFWKHWIQTKDGQCGSPLVSTRDGFIVGIHSASNFTNTNNYFTSVPKNFMELLTNQEAQQWVSGWRLNADSVLWGGHKVFMVKPEEPFQPVKEATQL
# Variants of: B1
# Experiment: raw area under fraction-flipped curve 0-4 h after induction (AUC4h, not background-subtracted), DNA-recorder readout of cleavage of the substrate (dimensionless); higher = more cleavage of the substrate by the protease variant
# Conditions: temperature: 34 °C; time window: 0-4 h after rhamnose induction
# Description: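 In vivo DNA recorder in E. coli TOP10(DE3) ΔrhaA at 34 °C. Each TEVp single-site mutant (parent TEVp 0) is paired with a single-site variant of the 7-mer TEVs (canonical ENLYFQ|S). The substrate sits between flexible linkers in a Bxb1-sfGFP-TEVs-SsrA fusion, so cleavage stabilises Bxb1 and speeds flipping of a recombination array, read by NGS. The value is the raw area under the fraction-flipped curve over 0-4 h after rhamnose induction (AUC4h), with ≥20 reads per time point. It is not background-subtracted; inactive controls average about 0.047.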
# 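Also: Bxb1 expression induced with 0.2% (w/v) L-rhamnose at OD600 near 0.5, cultures sampled hourly, flipped fraction per protease–substrate barcode pair counted by paired-end Illumina sequencing.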
Variant,area with substrate ENLAFQS,area with substrate ENLCFQS,area with substrate ENLDFQS,area with substrate ENLEFQS,area with substrate ENLFFQS,area with substrate ENLIFQS,area with substrate ENLKFQS,area with substrate ENLLFQS,area with substrate ENLNFQS,area with substrate ENLQFQS,area with substrate ENLRFQS,area with substrate ENLSFQS,area with substrate ENLWFQS,area with substrate ENLHFQS,area with substrate ENLMFQS,area with substrate ENLPFQS,area with substrate ENLGFQS,area with substrate ENLVFQS,area with substrate ENLTFQS
F65M,0.0569,0.0531,0.0664,0.0603,0.0782,0.0777,0.0717,0.0735,0.0608,0.069,0.0811,0.068,0.0587,–,–,–,–,–,–
K98T,0.0624,0.0846,0.0492,0.0561,0.0944,–,0.0805,0.0807,0.0617,0.0874,0.0832,0.0539,0.0677,0.079,0.0671,0.0619,–,–,–
K98G,0.0711,–,0.0693,0.0685,0.106,0.0973,0.0746,–,0.0698,–,0.0813,0.0575,0.0646,0.0791,–,0.0677,0.0657,–,–
Q59M,0.0761,0.0646,0.0645,0.0048,0.0847,0.0697,0.0684,0.0697,0.0544,0.078,–,0.063,–,0.0677,–,0.0641,–,0.113,–
M83K,0.0586,0.0513,0.0397,–,0.0519,–,–,–,0.0493,0.0289,0.0666,–,–,0.0732,–,0.0448,0.07,–,–
M83G,0.0512,0.0618,0.0526,0.0274,0.0543,0.053,0.0665,–,0.0623,–,0.0464,0.0619,–,0.0523,0.0589,0.0513,0.0445,–,0.076
M83C,0.0674,–,0.0635,–,–,–,0.0402,–,0.0658,–,0.0613,0.0701,0.0714,0.0672,–,0.0794,0.074,–,0.0764
E107H,0.0592,–,–,–,0.0801,–,–,–,0.0641,–,–,0.0616,–,0.0838,–,0.0608,–,–,–
E107G,0.0653,–,0.0642,0.0683,0.077,–,0.077,–,–,0.0544,–,0.0674,0.068,0.0966,–,–,0.0785,–,0.0619
I86D,0.0417,–,0.0362,0.0517,0.045,–,0.0288,–,–,0.0347,0.0364,–,0.0326,0.0345,0.0315,0.0333,–,0.0521,–
I86W,0.063,0.0612,0.0524,–,0.0719,0.0686,0.0687,0.0596,0.099,0.0634,–,0.0423,–,0.049,0.0651,0.0494,0.0614,0.0656,–
R51K,0.06,–,–,0.0955,0.0527,–,–,–,0.0528,0.056,–,0.0675,–,0.0684,0.0667,–,0.0752,–,–
K46W,0.0616,0.0548,0.057,0.0681,0.0695,0.0627,0.0627,0.0648,0.0615,0.0375,0.0501,0.051,–,0.0394,–,0.0287,–,0.0618,0.0476
F101K,0.0459,–,0.0591,–,0.0887,–,–,–,0.0617,–,–,0.0501,–,–,0.07,–,–,–,–
L77E,0.067,0.0644,0.0635,–,0.0595,0.0641,0.0696,0.0577,0.0602,0.0579,–,0.0569,–,0.0625,0.0333,0.0674,0.0641,0.0527,0.0839
L77W,0.0563,0.062,0.057,0.0722,0.0776,–,0.0602,0.0552,0.0551,0.0491,0.0606,–,0.0321,–,–,0.0597,–,–,–
K68C,0.0575,–,–,0.0623,0.113,0.106,0.095,0.0805,0.0661,–,0.0715,0.0504,–,0.0834,–,0.0606,0.0563,–,–
K68V,0.0733,0.033,0.0518,0.0642,0.0674,0.0763,0.0863,0.0677,0.0598,0.0493,0.0732,–,0.0744,0.0612,0.0671,0.0507,0.0553,0.0729,–
R106T,0.0462,–,0.073,0.0543,0.0805,0.0736,0.0783,0.0906,0.0657,0.0669,0.0895,0.0585,0.068,–,0.0841,0.0938,0.0699,–,–
K100H,0.0634,–,0.0563,0.0697,0.1,–,0.0705,0.0674,0.0701,–,0.0667,0.0507,0.0616,0.0778,0.0919,0.0606,0.0589,0.0815,–
S121G,0.0506,0.0715,0.0491,0.0472,0.0915,0.0719,0.0811,0.0687,0.0571,–,–,–,0.054,0.0956,–,–,–,–,0.0415
S121P,0.0985,0.0756,0.0696,0.068,0.0828,–,0.0903,–,0.0692,0.0619,–,0.071,–,–,0.0719,0.0581,0.0647,0.0688,–
C111W,0.0514,0.0588,0.1,0.0614,–,–,–,–,0.0497,–,0.0771,0.0563,0.0705,0.0639,0.0523,0.0517,–,–,–
R81F,0.0611,0.0647,0.0648,0.0644,0.0596,0.0403,0.0635,0.0685,0.0671,–,–,0.0577,0.0672,0.0716,0.0647,0.042,0.0639,0.0633,–
R81K,0.0754,–,0.063,0.0589,0.0658,0.0756,–,0.0731,0.0714,–,–,0.058,–,0.0734,–,0.0352,–,0.056,–
R81M,0.0758,–,0.0662,–,0.0777,–,0.0722,0.0625,0.0744,–,–,–,–,0.0707,–,0.067,–,0.0575,–
E103V,0.0849,0.065,0.0608,0.0725,0.0834,–,0.0729,0.0638,0.0701,0.0691,0.0683,0.0729,0.0665,0.0693,–,0.0562,–,0.056,–
